In PubChem BioAssay AID1508624 (National Center for Advancing Translational Sciences (NCATS), 2021):
Among all 48,000 compounds or so, about 120 (0.25%) were called active. About 4% were inconclusive and are not listed. The call rests on the fitted dose curve; in most records, active means well fitted activation curve with a large enough effect; inconclusive means small, poorly fitted or top-dose-only effect, or another doubt; inactive means no such curve, though single readings can be large or run the other way. The list shows a part of the results.

Assay: Primary qHTS for Identification of Small Molecule Activators of Huntingtin-Antisense Promoter Activity; further: nearly all actives have a fitted effect of over 55% in size
Conditions: HEK293 HTT-AS promoter firefly luciferase reporter, 24 h; series mostly up to 57.5 µM; activity change, positive = activation: at the top concentration
Outline: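 HEK293 Fluc reporter, 2,500 cells/well, 24 h pre-culture; cpds up to 57.5 uM final, 24 h 37 degrees C; Dual-Glo, 10 min RT; normalized vehicle = 0%, zero RLU = -100%.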

Activity change, positive = activation, inactive:
CCOc1ccc(S(=O)(=O)Nc2cccc(-c3ccc(OCC)nn3)c2)cc1 -51.1%, COc1ccccc1CCNC(=O)C(=O)NCC(c1cccs1)S(=O)(=O)c1cccs1 (stereo unspecified) -37.4%, Cc1ccc(/C=C/c2onc(C)c2S(=O)(=O)N2CCC(C(=O)Nc3cc(C)ccc3C)CC2)cc1 -7.12%, COc1ccc(S(=O)(=O)c2cn(C)c3ccc(C)cc3c2=O)cc1 0.337%, O=C(Nc1ccc(F)cc1C(F)(F)F)C1CCN(c2ncccn2)CC1 -3.99%, Cc1cccc(NC(=O)c2c(C)cc(C)nc2SCC(=O)c2ccccc2)c1 -11.4%, Cc1cc(C)c2oc(C(=O)Nc3ccc(S(=O)(=O)N4CCCCCC4)cc3)cc(=O)c2c1 -4.65%, O=C(Nc1ccc(S(=O)(=O)N2CCCCC2c2cccnc2)cc1)c1ccc(Br)cc1 (stereo unspecified) -61.4%, Cc1cccc(NC(=O)COC(=O)CCCC2=NS(=O)(=O)c3ccccc3N2)c1 -6.84%, COc1cccc(NC(=O)Cn2c(=O)cc(C)c3c(C)nn(-c4cccc(F)c4)c32)c1 16.2%, Oc1cccc(-c2nc(N3CCOCC3)c3oc4ncccc4c3n2)c1 -19.2% [at 116 µM, percent change from vehicle, -100% = no light], CC1CCCCN1C(=O)Cn1c(=O)n(-c2ccc(Cl)cc2)c(=O)c2c3c(sc21)CCC3 (stereo unspecified) -21.5%, CCN1CCN(C(c2ccc(OC)cc2)c2c(O)cc(C)n(Cc3ccco3)c2=O)CC1 (stereo unspecified) 13.4%, COc1ccc(CNC(=O)c2ccc(NC(=O)N3CC4CCCN4c4ccccc43)cc2)cc1 (stereo unspecified) -22.2%, COc1cccc(NC(=O)C2CCN(S(=O)(=O)c3cccc4nonc34)CC2)c1 -12.5%, Cc1ccc(-n2ncc(C(=O)NCCc3ccccc3)c2C2CCN(C(=O)OC(C)(C)C)CC2)c(C)c1 -18.3%, CCOc1cc2c(c(F)c1OCC)C(=N)N(CC(=O)c1cc(N3CCOCC3)c(OC)c(C(C)(C)C)c1)C2 -30.5%, COC(=O)c1ccc(NC(=O)CSc2nc(C)cc(C)c2C(=O)Nc2ccccc2)cc1 -22.6%, Cc1nc(-c2ccc(S(=O)(=O)Nc3ccc(C#N)cc3)cc2)co1 -31.2%, COc1cc(NS(=O)(=O)c2cnc(N)nc2)cc(OC)c1 -13.3%, CCOc1ccc(/C=C/C(=O)Nc2sc3c(c2C(=O)OC)C(C(=O)OC)CC3)cc1 (stereo unspecified) -9.7%, COc1cc(C(=O)OCc2cc(=O)n3nc(C4CCCCC4)sc3n2)cc(OC)c1OC -6.19%, CCOC(=O)c1cc(C)n(CC2CCC(C(=O)Nc3ccc(C(C)=O)cc3)CC2)c1C (stereo unspecified) -25.3%, COc1cc2cc(CNc3ccccc3)c(=O)n(CC(=O)Nc3ccccc3)c2cc1OC -9.73%, COc1ccc(N2CCN(C(=O)c3cccc(-n4c(C)nc5cccnc54)c3)CC2)cc1 -21.9%, CCc1cccc(NC(=O)c2cn3c4c(ccc(Cl)c4c2=O)OC(C)C3)c1 (stereo unspecified) -15.5%
